Results taken from PubChem BioAssay AID463173 (ICCB-Longwood Screening Facility, Harvard Medical School, 2010).
Out of some 52,000 compounds screened, about 1,700 (3.3%) were called active. Rule as the data show it: active = survival mostly below about 52% (no sharp cut-off); inactive = mostly above about 56%. The list shows a part of the results.

What follows are molecules tested on Wild type (assay: S. aureus survival, RN4220 and DeltatarO strains – OD600, teichoic acid synthesis inhibitors, primary screen (AID 463173)). Conditions: S. aureus RN4220 wild type/DeltatarO growth, OD600, 18 h, active compounds read low, screened at 18.75 µg/mL (by protocol).

Q: With Cc1ccc(-c2nc(S(=O)(=O)c3ccc(F)cc3)c(N3CCN(c4ccccc4)CC3)o2)cc1 as the molecule, how does the survival read?
A: Its survival is inactive: 89%.

Q: CC(C)C[C@H](N)c1nnc(SCc2ccc(Cl)cc2Cl)o1 was tested. Which survival did it give?
A: Its survival is inactive: 11%.

Q: How did the survival turn out when CC1=C(c2ccc(C(C)C)cc2)S(=O)(=O)N=C1N1CCN(c2ccccc2F)CC1 was run?
A: The survival was inactive: 90%.

Q: Which survival does the source give for Cc1ccccc1Nc1nn2c(=O)c3ccc(C(=O)NCC(C)c4ccccc4)cc3nc2s1 (configuration not stated) here?
A: Its survival is inactive: 65%.

Q: With C/C(=N\NC(=O)COc1ccccc1)C1C(=O)c2ccccc2C1=O as the molecule, how does the survival read?
A: Its survival is inactive: 107%.

Q: With CN1CCN(C(CNC(=O)C(=O)Nc2ccc(Cl)cc2)c2cccnc2)CC1 (configuration not stated) as the molecule, how does the survival read?
A: Its survival is inactive: 85%.

Q: For Cc1ccc(C)c(N2CCN(C(=O)CCc3nnc4n(C)c(=O)c5ccccc5n34)CC2)c1, which survival is on record?
A: The survival was inactive: 123%.

Q: How did the survival turn out when CCOCCCNC(=O)c1c[nH]c2ccc(S(=O)(=O)N(C)c3ccc(Cl)cc3F)cc2c1=O was run?
A: Its survival is inactive: 130%.

Q: NC(=O)c1nc(Nc2ccccc2)sc1NC(=O)c1c(F)cccc1F was tested. Which survival did it give?
A: The survival was inactive: 83%.

Q: How did the survival turn out when CCOC(=O)c1ccc(NC(=O)c2c(NCc3sccc3C)sc3c2CCC(C)C3)cc1 (configuration not stated) was run?
A: The survival was inactive: 135%.

Q: CCOC(=O)c1cccnc1SCC(=O)N(CC)c1cccc(C)c1 was tested. Which survival did it give?
A: Its survival is inactive: 70%.

Q: How did the survival turn out when COc1ccc(F)cc1S(=O)(=O)NCC(c1ccco1)S(=O)(=O)c1cccs1 (configuration not stated) was run?
A: Its survival is inactive: 81%.

Q: How did the survival turn out when CC(C)(C)c1ccc(OCC(=O)Nc2ccc(C(=O)OC3CCCCC3)cc2)cc1 was run?
A: Its survival is inactive: 71%.

Q: For CC(C)Cn1nc(NC(=O)c2cccc(Cl)c2)c2cc3ccccc3nc21, which survival is on record?
A: The survival was inactive: 90%.

Q: CCCCOc1cccc(C(=O)Nc2sc3c(c2C(=O)OCC)CCCC3)c1 was tested. Which survival did it give?
A: Its survival is inactive: 72%.

Q: CCC(c1nnnn1CCOC)N1CCN(c2nc3ccccc3s2)CC1 (configuration not stated) was tested. Which survival did it give?
A: Its survival is inactive: 100%.

Q: With Cc1cccc2c(=O)cc(CSc3ccccc3NC(=O)C(C)C)[nH]c12 as the molecule, how does the survival read?
A: The survival was inactive: 89%.

Q: COc1cccc(NC(=O)CSc2nc(=O)n(Cc3cccnc3)c3c2CCC3)c1 was tested. Which survival did it give?
A: Its survival is inactive: 65%.

Q: For Cc1ccc2nc3c(cc(C#N)c(=O)n3-c3nnc(SCc4ccc(F)cc4)s3)c(=O)n2c1, which survival is on record?
A: The survival was inactive: 92%.

Q: Which survival does the source give for Cc1ccc(Sc2ccc(N3CCCC(C(=O)Nc4ccc(F)c(Cl)c4)C3)nn2)cc1 (configuration not stated) here?
A: The survival was inactive: 71%.

Q: For COc1ccc(CCNC(=O)CCCCn2c(=O)c3ccccc3n(Cc3cc(C)ccc3C)c2=O)cc1OC, which survival is on record?
A: The survival was inactive: 92%.

Q: CCOc1ccc(CNC(=O)c2ccc3c(c2)c(C)c(C)n3C)cc1 was tested. Which survival did it give?
A: The survival was inactive: 94%.

Q: How did the survival turn out when CCCN(CCC)C(=O)Cn1c(=O)n(-c2ccc(OC)cc2OC)c(=O)c2c3c(sc21)CCC3 was run?
A: The survival was inactive: 84%.

Q: How did the survival turn out when O=C(CN(Cc1ccco1)C(=O)Cn1nnc(-c2cccs2)n1)NCc1ccccc1 was run?
A: The survival was inactive: 110%.

Q: With COc1ccc(OCC(=O)Nc2ccc(-c3nc4cc(Cl)ccc4o3)cc2)cc1 as the molecule, how does the survival read?
A: The survival was inactive: 159%.

Q: How did the survival turn out when CCOc1ccccc1NC(=O)Cn1c(=O)n(CC(=O)NCc2ccccc2Cl)c(=O)c2sccc21 was run?
A: The survival was inactive: 153%.

Q: How did the survival turn out when COc1ccccc1Nc1nc(NCC2CCCO2)c2ccccc2n1 (configuration not stated) was run?
A: Its survival is inactive: 105%.

Q: How did the survival turn out when CCOc1ccc(-n2c(SCc3ccccc3)nc3c([nH]c4ccccc43)c2=O)cc1 was run?
A: The survival was inactive: 73%.

Q: With CCCn1c2ccccc2c2cnn(CC(=O)NCC3CCN(Cc4ccc(C)cc4)CC3)c(=O)c21 as the molecule, how does the survival read?
A: The survival was active: -1%.

Q: Fc1ccc(-c2noc3ncnc(NCCc4ccc(Cl)cc4)c23)cc1 was tested. Which survival did it give?
A: Its survival is inactive: 83%.

Q: COc1cccc(N2CC(NC(=O)c3cc4ccccc4o3)CC2=O)c1 (configuration not stated) was tested. Which survival did it give?
A: The survival was inactive: 69%.

Q: How did the survival turn out when COc1ccc(Nc2cc(C)c3cc(NC(=O)c4ccccc4Cl)ccc3n2)cc1 was run?
A: The survival was inactive: 69%.

Q: How did the survival turn out when CC(C)c1ccc2c(c1)NC(c1ccc(F)cc1)=NC(c1cccs1)=N2 was run?
A: The survival was inactive: 71%.

Q: CC(C)=C(C#N)c1nc2ccccc2s1 was tested. Which survival did it give?
A: The survival was inactive: 126%.

Q: For Cc1cc(C(F)F)n2ncc(C(=O)O)c2n1, which survival is on record?
A: The survival was inactive: 92%.

Q: With Cc1ccc(NC(=O)Nc2nnc(SCC(=O)N3CCCCC3)s2)cc1 as the molecule, how does the survival read?
A: Its survival is inactive: 77%.

Q: For Cc1cc(Nc2cccc(C(F)(F)F)c2)nc2ccc(NC(=O)Cc3ccc(Cl)cc3)cc12, which survival is on record?
A: Its survival is inactive: 78%.

Q: Which survival does the source give for Cc1cccc(C(=O)NCCc2nc3ccccc3n2Cc2ccccc2Cl)c1 here?
A: Its survival is inactive: 106%.

Q: Cc1nc2ncnn2c(C)c1CCC(=O)N1CCN(c2ccc(F)cc2)CC1 was tested. Which survival did it give?
A: The survival was inactive: 72%.

Q: Which survival does the source give for COc1cccc(CNC(=O)N2CCc3c(sc4c3CCCC4)C2c2ccc(F)cc2)c1 (configuration not stated) here?
A: The survival was inactive: 75%.

Q: With Cc1cc(C)c(C#N)c(N2CCN(c3cccc(C)c3C)CC2)n1 as the molecule, how does the survival read?
A: Its survival is inactive: 109%.

Q: O=C(CSc1nnc(-c2ccncc2)n1-c1ccccc1)Nc1ccc(F)cc1 was tested. Which survival did it give?
A: Its survival is inactive: 72%.

Q: CCOc1ccccc1CNC(=O)CSc1n[nH]c(-c2ccccc2)n1 was tested. Which survival did it give?
A: The survival was inactive: 78%.

Q: How did the survival turn out when CCOC(=O)CCc1c(C)nc2c(-c3ccccc3)c(C)[nH]n2c1=O was run?
A: Its survival is inactive: 74%.

Q: With COc1ccc(OC)c(C2C(C(=O)Nc3ccc(C)cc3C)=C(C)Nc3c(C(=O)Nc4ccc(F)cc4)cnn32)c1 (configuration not stated) as the molecule, how does the survival read?
A: Its survival is inactive: 70%.

Q: Which survival does the source give for CCn1c2c(c(=O)n3ncc(C(=O)N4CCN(c5ccccc5)CC4)c13)CN(Cc1ccc(OC)cc1)CC2 here?
A: The survival was inactive: 133%.

Q: How did the survival turn out when Cc1ccccc1OCCCC(=O)NCc1ccco1 was run?
A: The survival was inactive: 102%.

Q: With Cc1cc(=O)n(Cc2cccc(Cl)c2)c2c1c(C)nn2C as the molecule, how does the survival read?
A: Its survival is inactive: 66%.

Q: With CC(C)c1noc(-c2ccccc2OCC(=O)Nc2ccc([N+](=O)[O-])cc2)n1 as the molecule, how does the survival read?
A: The survival was inactive: 81%.

Q: For COc1ccc(Cl)cc1NC(=O)CSc1nc(=O)n(Cc2ccco2)c2c1CCC2, which survival is on record?
A: The survival was inactive: 67%.

Q: O=C(CN1CCOCC1)NCC1COc2ccccc2O1 (configuration not stated) was tested. Which survival did it give?
A: Its survival is inactive: 120%.

Q: CCOC(=O)c1ccccc1NC(=O)c1cn(CC(C)C)c(=O)c2cc(OC)c(OC)cc12 was tested. Which survival did it give?
A: Its survival is inactive: 69%.

Q: For Cc1ccc(OCC(=O)Nc2nnc(S(=O)(=O)N3CCc4ccccc43)s2)cc1, which survival is on record?
A: The survival was inactive: 24%.

Q: COc1ccc(N2CCN(S(=O)(=O)c3ccc(C4CCCCC4)cc3)CC2)cc1 was tested. Which survival did it give?
A: Its survival is inactive: 82%.

Q: With Cc1ccc(-n2ncc3c(Nc4ccc(Oc5ccccc5)cc4)ncnc32)c(C)c1 as the molecule, how does the survival read?
A: The survival was inactive: 80%.

Q: COc1ccc(OC)c(-c2noc(CSc3nnc(-c4ccccc4)n3-c3ccccc3)n2)c1 was tested. Which survival did it give?
A: The survival was inactive: 85%.

Q: With COc1ccc(CCCc2nnc(SCC(=O)Nc3cc(F)ccc3C)o2)cc1 as the molecule, how does the survival read?
A: The survival was inactive: 74%.
